The record followed here is the supplement of paper PMC10126150.

The data set has as its system ATP. Put plainly: switch fluorescence ratio, 500 uM ATP over buffer (Cy3 cluster intensity, sum of 5 cycles each) (fold (ratio)); higher = stronger signal-on switching upon ATP binding; sequences stand for … in TCGTCGGCAGCGTCAGATGTGTATAAGAGACAGTTTTTTTTTTTTTTTTTTTTTTTTT…TC. The settings on record: aptamer strand: ATP DNA aptamer (quencher-CACCTGGGGGAGTATTGCGGAGGAAGG + anchor), 100 nM annealed; ATP concentration: 500 uM; one replicate. The method, boiled down:
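Five buffer/ATP imaging cycles were run on Cy3-labelled switching-strand clusters on a modified Illumina MiSeq flow-cell, with NaOH stripping and re-annealing between cycles. In each cycle, clusters annealed to 100 nM quencher-labelled ATP aptamer were imaged in selection buffer, then after 15 min with 500 uM ATP at 22 °C. Per cluster, the fluorescence ratio is summed target-cycle over summed buffer-cycle Cy3 intensity, averaged per switch-domain sequence. Only clusters within 100-1000 RFU were kept.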

Sequences with one replicate were seen in a single cluster, so their values are uncertain.
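Note: ATP exposure 15 min at 22 °C before imaging.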

Regarding CCAATCGGTT, the switch fluorescence ratio was 1.01.
Turning to CCGTCGCCAA, the switch fluorescence ratio turned out to be 3.02.
TATTGCCGCG: the switch fluorescence ratio came to 1.01.
For TCTACTTATT the value was 1.03; for GGTTCGTCCC, 0.989.
For GGTTAACCAT the value was 1.02.
As for GATCAAAAGT, the switch fluorescence ratio is 0.967.
As for GAGGGAGC, the switch fluorescence ratio stood at 0.99.
On to GCTTTGACCC, for which the switch fluorescence ratio amounted to 1.03.
With CGCTGAGAGC the figure was 1.04.
As for AATGTAACCG, the switch fluorescence ratio is 1.
With GTTGCCCCGA the figure was 1.01; with ATTAAAAAG, 1.05; with GCCAACGTAC, 2.08.
Turning to ACGACGCGGT, the switch fluorescence ratio is 1.02.
CTGCCAGAAT: the switch fluorescence ratio was determined as 1.01.
On to ATAGCAGTGT, for which the switch fluorescence ratio amounted to 1.
In the case of ACGCGAGCCA, the switch fluorescence ratio came to 1.02.
With GGGTTTGCAA the figure was 1; with ACCTGAGAAC, 1.08.
With CACTTAGAAA, the switch fluorescence ratio came out at 1.01.
On to GGCAGGACAG, for which the switch fluorescence ratio is 0.952.
Take AAATTTTGTG: the switch fluorescence ratio was 0.954.
As for CAGGTCACGA, the switch fluorescence ratio came to 0.988.
AGGGATACAA: the switch fluorescence ratio came out at 1.02.
Consider AGTAACTAA, for which the switch fluorescence ratio came to 1.01.
With ACACAGGTTC the figure was 1.1.
Turning to GCGAAGAGCT, the switch fluorescence ratio worked out at 1.04.
With AATAGGCCCT, the switch fluorescence ratio came out at 1.06.
Take ATACAAGCC: the switch fluorescence ratio came to 1.08.
With AAAGAAGAGC, the switch fluorescence ratio worked out at 1.01.
TTATCTGAAA: the switch fluorescence ratio amounted to 0.979.
Consider CATGTTACT, for which the switch fluorescence ratio is 0.988.
Consider TGGTCATTGT, for which the switch fluorescence ratio is 0.979.
With TTCTTTGCTG, the switch fluorescence ratio is 0.974.
For GCATCGGGCG, the switch fluorescence ratio came out at 1.03.
On to CCGAAGTCAT, for which the switch fluorescence ratio is 3.91.
For AGGACTCAGG, the switch fluorescence ratio turned out to be 0.969.
Consider ATAAATAGAG, for which the switch fluorescence ratio stood at 0.971.
Turning to AGGTAAATCA, the switch fluorescence ratio was determined as 1.02.
Consider GTGACTTGGA, for which the switch fluorescence ratio was determined as 0.99.
Turning to ATAGCTACTC, the switch fluorescence ratio came out at 2.02.
For the sequence ACCAAAACGG, the switch fluorescence ratio came to 1.07.
Turning to GCCGGGATCC, the switch fluorescence ratio came to 1.
TAAAAGGAGA: the switch fluorescence ratio turned out to be 1.03.
Regarding GTGAGTCGAT, the switch fluorescence ratio stood at 0.979.
For TAAGTGTTAA, the switch fluorescence ratio was 1.01.
For the sequence CGGTACAAGC, the switch fluorescence ratio was determined as 1.06.
For GCGGCGGACA the value was 1.03; for GATAATGGA, 0.947; for TTCCTGGCCG, 0.835.
For AGCTATATTC, the switch fluorescence ratio turned out to be 1.33.
With AAGATTAATG the figure was 0.983.
For TTTGGGTCCT the value was 1.01.
Consider ATAGTCCAAT, for which the switch fluorescence ratio turned out to be 0.969.
With CAACAAGTAG the figure was 1.03.
With TCCTATCTAT the figure was 0.954; with TAGTCTCGGG, 1.02; with ATGTGGCGAT, 0.997.
For TGATTGTGTT the value was 0.965; for TAAGATCAAT, 1.16; for CTATCACAGC, 1.02.
As to CCGCTCCAGA, the switch fluorescence ratio was determined as 1.6.
For AGAAACGGTG the value was 1.17; for CGTACTAATC, 1.03.
TGGTAGCTGA: the switch fluorescence ratio came to 1.
Take GACTAGCATT: the switch fluorescence ratio turned out to be 1.07.
Consider ATGTGGATGT, for which the switch fluorescence ratio turned out to be 0.991.
In the case of ACCCTTTCCA, the switch fluorescence ratio was 1.05.
For ATCTGTTAC, the switch fluorescence ratio amounted to 1.07.
ACACCTAATG: the switch fluorescence ratio was 0.996.
On to GTGGCCCGGC, for which the switch fluorescence ratio was 0.978.
As to CGCTCCTCCG, the switch fluorescence ratio worked out at 5.54.
For GGTGGGAGAG the value was 1.03; for AGCATCGAGG, 1.04; for CATCAATTCC, 1.1.
With TCGGTTTCGG, the switch fluorescence ratio came to 0.992.
In the case of GGTGGAGCTG, the switch fluorescence ratio is 0.985.
